Measurements taken from the antibiotic and cytotoxicity screens of Wong et al. (2023).
The other results are listed elsewhere or left out.

Columns and labels:
[1] = tested on: HSkMC (human skeletal muscle cells); assay: cytotoxicity call (relative viability < 0.9); conditions: 10 µM
[2] = tested on: HepG2; assay: cytotoxicity call (relative viability < 0.9); conditions: 10 µM
[3] = tested on: S. aureus RN4220; assay: growth inhibition call (relative growth <= 0.2); conditions: 50 µM

CN1CCN(C(=O)C[C@H]2C=C[C@H](NC(=O)c3ccc4c(c3)OCO4)[C@@H](CO)O2)CC1
inactive: cytotoxicity call [1] | cytotoxicity call [2] | growth inhibition call [3]

CN(C)C(=O)C[C@H]1CC[C@@H]2[C@H](COC[C@H](O)CN2S(=O)(=O)c2ccccc2)O1
inactive: cytotoxicity call [1] | cytotoxicity call [2] | growth inhibition call [3]

CCCNC(=O)Nc1ccc2c(c1)OC[C@H](C)N(C(=O)C1CCOCC1)C[C@H](C)[C@@H](OC)CN(C)C2=O
inactive: cytotoxicity call [1] | cytotoxicity call [2] | growth inhibition call [3]

O=C(CO)N1C[C@H]2C[C@@H]1C[C@@H]2Oc1cccnc1
inactive: cytotoxicity call [1] | cytotoxicity call [2] | growth inhibition call [3]

C[C@H]1CN([C@@H](C)CO)C(=O)c2cc(NS(=O)(=O)c3cccs3)ccc2O[C@H]1CN(C)C(=O)Nc1cccc2ccccc12
inactive: cytotoxicity call [1] | cytotoxicity call [2] | growth inhibition call [3]

COc1ccc(S(=O)(=O)Nc2ccc3c(c2)CC(=O)N([C@@H](C)CO)C[C@@H](C)[C@@H](CN(C)Cc2ccc(C(=O)O)cc2)O3)cc1
inactive: cytotoxicity call [1] | cytotoxicity call [2] | growth inhibition call [3]

Cn1cnc(CCNC(=O)C[C@@H]2CC[C@H]3[C@@H](COC[C@@H](O)CN3C(=O)Nc3ccc(Cl)cc3)O2)c1
inactive: cytotoxicity call [1] | cytotoxicity call [2] | growth inhibition call [3]

Cc1ccccc1S(=O)(=O)N1C[C@@H](O)COC[C@H]2O[C@@H](CC(=O)NCCc3ccccc3)CC[C@@H]21
inactive: cytotoxicity call [1] | cytotoxicity call [2] | growth inhibition call [3]

OC[C@H]1O[C@@H](O)[C@H](O)[C@@H](O)[C@H]1O
inactive: cytotoxicity call [1] | cytotoxicity call [2] | growth inhibition call [3]

CS(=O)(=O)Nc1ccc2c(c1)[C@@H]1C[C@@H](CC(=O)NCc3ccc(-c4ccccc4)cc3)O[C@H](CO)[C@@H]1O2
inactive: cytotoxicity call [1] | cytotoxicity call [2] | growth inhibition call [3]
